{"source": "PubChem BioAssay AID1345083", "about": "(National Center for Advancing Translational Sciences (NCATS), 2018)", "note": "The campaign covered roughly 94,000 compounds. About 6,200 (6.6%) were called active. Inconclusive results, whose numbers are uncertain, are shown with a selection of clear calls. Calls follow the shape of the dose curve; as a rule, active = well fitted inhibition curve with a large enough effect; inconclusive = small, poorly fitted or top-dose-only effect; inactive = flat fitted curve, though single readings scatter. Potencies of inconclusive entries are doubtful fits and often do not repeat. Potency is read from the fitted curve at half-maximal effect; tags tell the direction and shape of the fitted curve."}
{"assay": "Cytotoxic Profiling in HEK 293 Cell Line of Diverse Libraries Using Quantitative High-Throughput Screening; also: nearly all actives have a fitted effect of over 60% in size", "details": "HEK 293 viability, ATP luminescence (CellTiter-Glo), 48-72 h; series mostly up to 115 µM", "procedure,_shortened": "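Pintool-delivered compounds were incubated with HEK 293 cells (250 cells/well) at 37 degree Celsius for 48 or 72 hr. ATP-dependent luminescence (CellTiter-Glo) then reported remaining viable cells.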"}
{"molecule": "Cc1nc(-c2ccccc2)n(Cc2ccc(F)cc2Cl)c(=O)c1CCO", "Potency": "active: 28.2 µM"}
{"molecule": "O=C(C1CCCC1)N1CCCC1c1nc(C2CCOCC2)no1", "note": "(configuration not stated)", "Potency": "inactive"}
{"molecule": "O=C(N[C@H]1CO[C@H]2[C@@H]1OC[C@@H]2Nc1nccc(-c2ccc(-c3ccccc3)cc2)n1)c1ccc2c(c1)OCO2", "Potency": "inactive"}
{"molecule": "COc1cccc(Cn2c(Cc3c[nH]c4ccccc34)n[nH]c2=O)c1", "Potency": "inconclusive: 50.1 µM [inhibitor, partial curve, poor fit]"}
{"molecule": "COc1cccc(-c2ccc(C(=O)N3CCC(NC(=O)c4ccc(C)cc4)CC3)cc2)c1", "Potency": "inconclusive: 44.7 µM [inhibitor, partial curve, poor fit]"}
{"molecule": "O=C(c1ccc(Cl)cc1)N1CC2(CCCN2Cc2ccc(Cl)cc2)Cc2ccccc21", "note": "(configuration not stated)", "Potency": "inconclusive: 44.7 µM [inhibitor, partial curve, poor fit]"}
{"molecule": "CC1CCC2(CC1)OCC(C(=O)NCc1ccccc1F)N2C(=O)c1ccc(F)cc1", "note": "(configuration not stated)", "Potency": "inactive"}
{"molecule": "O=C1CCC2(CCN(C(=O)c3cnccn3)CC2)CN1CC1CCCO1", "note": "(configuration not stated)", "Potency": "inactive"}
{"molecule": "CCc1ccc(NC(=O)Cn2c(N3CCCCC3)nc(C)c(C)c2=O)cc1", "Potency": "inconclusive: 25.1 µM [inhibitor, full curve]"}
{"molecule": "CC1(CNCc2ccccc2)COc2ccc(C(=O)NCc3ccncc3)cc2N1", "note": "(configuration not stated)", "Potency": "inconclusive: 100 µM [inhibitor, partial curve]"}
{"molecule": "COc1ccc(C(=O)N2CCN(c3cc(-c4cccs4)[nH]n3)CC2)cc1OC", "Potency": "inconclusive: 89.1 µM [inhibitor, single point]"}
{"molecule": "O=C1NCCOCCCN(S(=O)(=O)c2ccc3c(c2)CCC3)[C@H]2CCCC[C@@H]12", "Potency": "inconclusive: 50.1 µM [inhibitor, partial curve, poor fit]"}
{"molecule": "O=[S+]1([O-])c2cccnc2OC(Cn2cccc2)CN1CCc1ccccc1", "note": "(configuration not stated)", "Potency": "inconclusive: 35.5 µM [inhibitor, partial curve, poor fit]"}
{"molecule": "Cc1noc(C)c1S(=O)(=O)N1CCC[C@H](n2c(=O)n(C)c3cccnc32)C1", "Potency": "inconclusive: 63.1 µM [inhibitor, partial curve, poor fit]"}
{"molecule": "CCc1ccc(S(=O)(=O)N2CCC(n3cnnc3C3CC3)CC2)cc1", "Potency": "inconclusive: 14.1 µM [inhibitor, full curve]"}
{"molecule": "CN(C)S(=O)(=O)N1CCC(N2C(=O)C3(CCCCC3)C2c2ccccc2)CC1", "note": "(configuration not stated)", "Potency": "inconclusive: 89.1 µM [inhibitor, single point]"}
{"molecule": "Cn1ccc(NC(=O)c2cc(-c3ccccc3F)cc3c2OCCN3Cc2cccnc2)n1", "Potency": "inconclusive: 56.2 µM [inhibitor, partial curve, poor fit]"}
{"molecule": "Cn1ncc2c(C(=O)NCc3cccc(Cl)c3)cc(-c3ccc(C(F)(F)F)cc3)nc21", "Potency": "inconclusive: 89.1 µM [inhibitor, single point]"}
{"molecule": "O[C@H]1[C@H](NCc2ccc(OC(F)(F)F)cc2)[C@H]2CO[C@H](O2)[C@@H]1N1CCOCC1", "Potency": "inactive"}
{"molecule": "CCCCOCCCNC(=O)c1c(C)noc1-c1ccc(OC(F)(F)F)cc1", "Potency": "inconclusive: 63.1 µM [inhibitor, partial curve, poor fit]"}
{"molecule": "COc1cc2c(cc1-c1ccc(F)cc1)OCC(C)(C)CC2CO", "note": "(configuration not stated)", "Potency": "inconclusive: 79.4 µM [inhibitor, partial curve, poor fit]"}
{"molecule": "COc1ccc(CC(=O)Nc2ccc3n(c2=O)C[C@H]2C[C@@H]3CN(C(=O)Nc3ccc(OC)cc3)C2)cc1", "Potency": "inactive"}
{"molecule": "COc1ccc(S(=O)(=O)NCCNc2cc(C)nc3ccnn23)cc1", "Potency": "inactive"}
{"molecule": "Cc1ccc(S(=O)(=O)Cc2noc([C@@H]3C[C@@H](O)CN3Cc3cccc(OC(F)(F)F)c3)n2)cc1", "Potency": "inconclusive: 56.2 µM [inhibitor, partial curve, poor fit]"}
{"molecule": "O=[S+]1([O-])NCC2(CCN(Cc3ccc(F)cc3)CC2)Nc2ccccc21", "Potency": "inconclusive: 56.2 µM [inhibitor, partial curve, poor fit]"}
{"molecule": "O=C(CC(c1cccc2c1OCO2)c1c[nH]c2ccccc12)NCc1ccccc1", "note": "(configuration not stated)", "Potency": "inconclusive: 44.7 µM [inhibitor, partial curve, poor fit]"}
{"molecule": "O=C(NCCCc1ccccc1)C1CCCN1c1nccc(Nc2ccccc2F)n1", "note": "(configuration not stated)", "Potency": "active: 44.7 µM"}
{"molecule": "COC(=O)C1=C(C)N=C2SC=C(CC(=O)NC3CCCCC3)N2C1c1ccsc1", "note": "(configuration not stated)", "Potency": "inconclusive: 89.1 µM [inhibitor, single point]"}
{"molecule": "CN1[C@@H](CCC(=O)NCc2ccc(F)cc2)CNC(=O)[C@@H]2[C@H]1CCN2Cc1cccc(Cl)c1", "Potency": "inconclusive: 50.1 µM [inhibitor, partial curve, poor fit]"}
{"molecule": "CC1CCN(C(=O)C2(CCO)CC23CCOCC3)CC1", "note": "(configuration not stated)", "Potency": "inconclusive: 89.1 µM [inhibitor, partial curve, poor fit]"}
{"molecule": "COc1ccc(CN2C(=O)CO[C@H]3CN(Cc4c[nH]c5ccccc45)C[C@H]32)cc1", "Potency": "inconclusive: 100 µM [inhibitor, partial curve]"}
{"molecule": "COCCNC(=O)c1cc(-c2ccccc2OC)c2nncn2n1", "Potency": "inactive"}
{"molecule": "Cc1ccc(C(=O)N2CCC3(CC2)COc2ccccc2C(=O)N3)cc1", "Potency": "inactive"}
{"molecule": "COc1ccc(Cl)cc1NC(=O)Cn1c(N2CCOCC2)nc(C)cc1=O", "Potency": "inconclusive: 50.1 µM [inhibitor, partial curve, poor fit]"}
{"molecule": "O=C(Cc1ccccn1)NC1CCN(c2nc3ncccc3o2)CC1", "Potency": "inactive"}
{"molecule": "O=C(O)C[C@@H]1CCN(C(=O)c2ccco2)C[C@@H]1CC1=NCCc2ccccc21", "Potency": "inconclusive: 100 µM [inhibitor, partial curve]"}
{"molecule": "O=C(CC1CCCCC1)N1CCn2c(nnc2[C@@H]2C[C@@H](O)CN2Cc2ccccc2)C1", "Potency": "inactive"}
{"molecule": "CCc1nc(-c2c3n(c(=O)n(CC(=O)c4ccc(Cl)cc4)c2=O)CCCC3)no1", "Potency": "inactive"}
{"molecule": "O=C(CCc1nnn2c1CN(S(=O)(=O)c1ccc(F)cc1)CC2)NC1CC1", "Potency": "inactive"}
{"molecule": "COc1ccc(OC)c(CN2CCNc3cnc(Nc4cccnc4)cc3C2)c1", "Potency": "inconclusive: 79.4 µM [inhibitor, partial curve, poor fit]"}
{"molecule": "COc1ccc(S(=O)(=O)N2CCOC[C@H](Oc3cccc(C)n3)C2)cc1", "Potency": "inconclusive: 100 µM [inhibitor, partial curve, poor fit]"}
{"molecule": "COc1cccc(CCC2CCCN(C(=O)c3ccoc3C)C2)c1", "note": "(configuration not stated)", "Potency": "active: 31.6 µM"}
{"molecule": "O=C(NCCCc1ccccc1)C1CCN(C(=O)c2ccc(-c3cccs3)cc2)CC1", "Potency": "inconclusive: 28.2 µM [inhibitor, partial curve, poor fit]"}
{"molecule": "CCOC(=O)C1CCCN(C(=O)c2cnc3cc(C)nn3c2)C1", "note": "(configuration not stated)", "Potency": "inconclusive: 79.4 µM [inhibitor, partial curve, poor fit]"}
{"molecule": "O=C1[C@@H]2C[C@@H](CN2Cc2ccc(F)cc2)Oc2ccccc2N1CC1CC1", "Potency": "inconclusive: 79.4 µM [inhibitor, partial curve]"}
{"molecule": "Cc1ccc(OCC(=O)c2ccc3c(c2)N(CCCC(=O)N2CCOCC2)C(=O)CO3)cc1C", "Potency": "inconclusive: 89.1 µM [inhibitor, single point]"}
{"molecule": "O=C1N(Cc2ccc(F)c(F)c2)CCCC12CCN(c1nc3ccccc3o1)C2", "note": "(configuration not stated)", "Potency": "inconclusive: 50.1 µM [inhibitor, partial curve, poor fit]"}
{"molecule": "CCCCCNC(=O)C1CCCN1Cc1ccc(-c2cccc(OC)c2)cc1", "note": "(configuration not stated)", "Potency": "active: 22.4 µM"}
{"molecule": "COc1ccc(N2Cc3c(NCC4CCCCCC4)ncnc3N(C)CC2=O)cc1", "Potency": "active: 79.4 µM"}
{"molecule": "COc1ccc(CNC(=O)[C@@H]2CCC[C@@H](NC(=O)C3CC3)CN(C)C(=O)C2)cc1", "Potency": "inactive"}
{"molecule": "COc1cccc(CN(C)C2CCCc3ccccc32)c1", "note": "(configuration not stated)", "Potency": "inconclusive: 89.1 µM [inhibitor, partial curve, poor fit]"}
{"molecule": "FC(F)(F)c1cccc(CN2CCOC[C@H](Oc3cccnc3)C2)c1", "Potency": "inconclusive: 89.1 µM [inhibitor, partial curve]"}
{"molecule": "Cc1ccc(C2NC(=O)N(CC(=O)Nc3ccc(C(C)C)cc3)C3=C2C(=O)OC3)cc1", "note": "(configuration not stated)", "Potency": "inconclusive: 25.1 µM [inhibitor, full curve]"}
{"molecule": "N#Cc1ccccc1CN1CCCCC12Cc1ccccc1CNC2=O", "note": "(configuration not stated)", "Potency": "inconclusive: 89.1 µM [inhibitor, partial curve, poor fit]"}
{"molecule": "COc1cc(NC(=S)N[C@H]2CO[C@H]3[C@@H]2OC[C@H]3OC(=O)Nc2ccccc2)cc(OC)c1", "Potency": "inactive"}
{"molecule": "O=C1CO[C@H]2CCN(Cc3c[nH]c4ccccc34)CC[C@@H]2N1Cc1ccccc1", "Potency": "inconclusive: 112 µM [inhibitor, partial curve, poor fit]"}
{"molecule": "CC(C)c1nc(CN(C)C(=O)c2csc3nc(-c4ccc(F)cc4)cn23)no1", "Potency": "inconclusive: 50.1 µM [inhibitor, partial curve, poor fit]"}
{"molecule": "COc1ccccc1NC(=O)N1CCc2cc(OC)c(OC)cc2C1CNC(=O)C(C)C", "note": "(configuration not stated)", "Potency": "inactive"}
{"molecule": "COCCc1noc(C2Cc3ccccc3N2C(=O)CCc2cccc(OC)c2)n1", "note": "(configuration not stated)", "Potency": "inconclusive: 79.4 µM [inhibitor, partial curve]"}
{"molecule": "C[C@]1(CO)C2CC[C@@H](O)[C@@H](CC(=O)NCc3ccccc3)[C@]2(C)CC[C@H]1OC(=O)NC1CCCCC1", "note": "(some centres not stated)", "Potency": "inconclusive: 50.1 µM [inhibitor, partial curve, poor fit]"}
{"molecule": "O=C1COc2ccc(OCc3ccccc3)nc2CN1Cc1ccc(F)cc1", "Potency": "inconclusive: 100 µM [inhibitor, partial curve, poor fit]"}
{"molecule": "CCC(=O)N1Cc2ccccc2CC2(CCCCN2Cc2ccncc2)C1", "note": "(configuration not stated)", "Potency": "inconclusive: 79.4 µM [inhibitor, partial curve, poor fit]"}
